# Assay results taken from PMC10726135.
# Some of the results follow. At the low end of the ranking, values are background and their order means little. Measured with an extract: partners may take part in the binding.
# Target: T1, HNF4alpha8 (COS-7 nuclear extract) (UniProt P41235-5)
# T1 sequence: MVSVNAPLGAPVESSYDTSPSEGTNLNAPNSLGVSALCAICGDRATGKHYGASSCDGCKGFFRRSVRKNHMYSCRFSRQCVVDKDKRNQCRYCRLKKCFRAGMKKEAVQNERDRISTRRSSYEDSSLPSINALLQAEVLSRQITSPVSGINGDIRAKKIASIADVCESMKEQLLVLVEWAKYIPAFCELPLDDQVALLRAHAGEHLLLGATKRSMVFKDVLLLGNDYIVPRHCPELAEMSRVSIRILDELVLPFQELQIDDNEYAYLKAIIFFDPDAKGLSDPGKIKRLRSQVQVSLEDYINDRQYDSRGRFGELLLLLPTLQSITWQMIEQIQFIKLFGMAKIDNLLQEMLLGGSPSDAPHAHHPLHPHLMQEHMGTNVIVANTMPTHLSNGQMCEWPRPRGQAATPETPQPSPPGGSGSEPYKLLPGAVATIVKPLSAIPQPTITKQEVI
# Experiment: protein-binding microarray
# Settings: COS-7 nuclear extract on double-stranded Agilent 4x180k PBM; binding buffer, salt, pH and temperature not given; high values mean tight binding; double strand, one strand shown; sequences stand for … in …GCCTAGGGAGATTAGAGTATCGGTCGA
row,Sequence,binding signal (log2 normalized intensity)
1,CGCGCCGGGCACTGATAACGCCCGCCTAAC,-1.21
2,TTGGGCTAGCCGCTCCTCCCACGTCGCTGC,-1.14
3,TGAAAATACAAACAAATTGTGTGCAACAGG,-0.714
4,GCCATTGTTCATACTGCAGCTCTGCGTCTT,-0.894
5,CTGCAGGTCTCTAAATGGTAGGATTGTTTG,0.912
6,AGGTAGAGGGACACTGATAACACTGATAAC,-1.36
7,GACGACTTACTTTTATCAGGTAAAGATATG,0.855
8,GTTGCAACTTTGACTATAGCGTCTCCTGGC,-1.38
9,CTAACGTATGGACTTTCTGATGTCAGAAAA,1.79
10,AGCTCTGAACTAACAATTCTTTCTGATAAG,-0.922
11,ACAAGGAAAAATGACCATCTCGTCAAGGTG,-1.4
12,ATTCCACCCTCATTTGCTTGACCCGGGTAC,3.18
13,GGGCATGAAGTCAAAGGAGGCATTCCTGCA,-1.25
14,AACTGTGTAATAAGGAGTTGTGTGATAAGG,1.31
15,TTCAAAGGTAGGGCCTACCTGCCTGAGCTA,-1.45
16,TGTTGGGGAACTTTGCCCGGATTCCAGCAA,2.22
17,GTTTGCAAGCCCAAAGCCCCCAGAGGTTCT,3.19
18,GGGCTGAGCCCACAGTCCAGTACCATTTCC,-0.908
19,GCCCCAGTGATGACAGCAAGATAATGTCAA,1.44
20,AGGTTACAATTGTCCCCAAGATTGAGGCCA,1.53
21,CCTCCTGTGGTAATAAGTTGGTGGACGCTG,1.13
22,TAACAGACTGTAGGCTTGGAGCCTTGTAAA,-1.26
23,CCATGGACCTGACACCCGCTGGCGCCATCC,-1.33
24,GGAATGTCCTGGCAGGCTTCGAAAAATGGG,-1.29
25,GCAGGTGAACGACTTGACAAAGGTCATTCA,5.13

row,Sequence,binding signal (log2 normalized intensity)
1,GGTCAAAGTGCGTCCTGTGGCAAAGGTGAA,3.03
2,GTACTTTGGAACCTGAAAGAGCAACTACTC,3.35
3,GAATCCCGGGAATCCTCAGCCTTCTCCGCG,-1.32
4,CAAATATTTACTGAATGAATGTCCAACTTG,0.916
5,TGAGGGTAAAGATCTTGAGGCCCACAAGGA,-1.22
6,AACTCTTCATTATGGATAGGCACATATTGG,1.3
7,GTGCTATCTCAGCTCACTGTAACCTTTGCC,4.68
8,TCTCCAAGTCAAACATTAGCCAGGATCAGA,-1.39
9,AGGCATTAGCAATGCGAGAGTACACAGAAG,-1.28
10,CGAGTTGTTCTCCGTCTATAAATACGCCTC,-1.19
11,TCCTGCTAGTCACATCAAAACCTCCCAGCT,-1.22
12,TGGGGGAAGGGCAGGGCCTGGGAGATAACC,-1.21
13,TGGGTTATGTTAGACCAGCCAATTCTACTG,-1.08
14,AATAGTGACCTCTGCTGGCCAGTGGAAAAC,1.37
15,GGCATGGGAAGCAGTGAGGGTGGGTTCAAA,1.64
16,GCATTCTGTTTCCTACTGACCTCCGACCCC,7.08
17,CTATTAACTTTTCCATGTCCAAAGGTCTTC,5.6
18,ACCGCAAATAAAAGAGGGCCCCATCATGTG,-1.3
19,CCTATTTGCTTGTGAATGAAAGAGACTAGT,0.943
20,CACCAGGTGGAGTCTCCTTGAGGGCAAAGT,4.21
21,ATCTTCTTTCCTGGTGCCTCCTTATCTCCC,1.45
22,TCGCCTTTTATTTTTCCCCTGAAATATCAT,1.92
23,AGAGGTCACTCAGCAATAAATACCAAAGCC,-1.16
24,ATTCATAAAGTTCTCTGGCAAATATCAGCA,-0.474
25,CAGAAGTCATGTCTCATTGCCCCTTGAGCT,3.87

row,Sequence,binding signal (log2 normalized intensity)
1,TTCCAGGGATGTTTGGCAGCTGAGGATTGT,1.05
2,AGAGCAGACTATTATCAGCCAAAGTTCAGT,2.89
3,TGAGGTCAAGGCTTCTGCCCCAGACACGCT,1.13
4,GCGTATGAAGCTTTGACCCTGTTTTGTAAA,3.08
5,CCCATTTTGTCCCTCCCTGCAGCTGAAGCA,1.36
6,CTTTGGACTTTTGAACTAAGGCTGGAATGA,3.69
7,AAAATACCTGGAAGTATTTATTGAGCACAC,-0.121
8,CAACCAGGAGAATTTCAGTATTAATGTCAA,1.35
9,CCCACTCCCCCTGCTGGACACCGAGGTCCT,1.84
10,TTGCCCTTTGCCCAACCCTCTCCCACTCCC,4.93
11,TTCCAAAGGTCACCCGTATTCCTTAGCTTA,2.39
12,TTCCACGACTCCCCCGCTCACCCCTCCCCA,6.23
13,TTTTCGGAAGAACTGGTTCTGTGGAATTTG,2.1
14,CCCAAAAGGTCAATCTGGATTGTACTGTGT,3.55
15,AGTTGGAAAATATTTCTCTGAACTTTGACC,8.68
16,GCTCAAAGGCGGCCCGGGTGGGGGTGGGGC,-1.36
17,CTTCATTCTCATCTTCTATGATAAGATCTT,0.794
18,TCCGCGAGGGTCCCCACCTTCCATTACCAC,0.832
19,TGACCTTTGTTTGGTCAAATACCTAATTGT,2.88
20,CCGGGGCAAACAAGGGCAACTCTAATAGCA,-1.38
21,TCTTTGAGAAAACTCCAAAGACATTATCAC,-0.739
22,GTCTTTCAGGAAGGAATAAAAGGCTGTTCT,-0.147
23,CACAGACAAATATTTGCTGTTACTCTAGTA,-0.102
